Results taken from the supplement of paper PMC8728848.
This is one part of the list.

Assays:
Test in all cases: glycan array binding signal (z-score within array); higher = stronger binding
Conditions in all cases: glycan notation: IUPAC condensed, linker removed
[1] = target: Gal(b1-4)GlcNAc(b1-3)Gal(b1-4)GlcNAc(b1-2)[Gal(b1-4)GlcNAc(b1-3)Gal(b1-4)GlcNAc(b1-6)]Man(a1-6)[Gal(b1-4)GlcNAc(b1-3)Gal(b1-4)GlcNAc(b1-2)Man(a1-3)]Man(b1-4)GlcNAc(b1-4)GlcNAc
How it was run: (§1)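 Glycan array data were curated from 3228 arrays in the Consortium for Functional Glycomics database and kept only where the protein sequence was available. Glycan names were converted to IUPAC-condensed notation, and columns mapping to the same glycan were averaged. The binding signal is a within-array Z-score, averaged across arrays of the same protein sequence at different concentrations or buffers and across linkers. Negative Z-scores can be read as non-binding.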

[2] = target: Gal(b1-4)GlcNAc(b1-3)Gal(b1-4)GlcNAc(b1-2)[Gal(b1-4)GlcNAc(b1-3)Gal(b1-4)GlcNAc(b1-6)]Man(a1-6)[Gal(b1-4)GlcNAc(b1-3)Gal(b1-4)GlcNAc(b1-2)Man(a1-3)]Man(b1-4)GlcNAc(b1-4)[Fuc(a1-6)]GlcNAc
How it was run: as §1

[3] = target: Gal(b1-4)GlcNAc(b1-3)Gal(b1-4)GlcNAc(b1-3)Gal(b1-4)GlcNAc
How it was run: as §1

[4] = target: Gal(b1-4)GlcNAc(b1-3)Gal(b1-4)GlcNAc(b1-3)Gal(b1-4)GlcNAc(b1-2)Man(a1-3)[Gal(b1-4)GlcNAc(b1-3)Gal(b1-4)GlcNAc(b1-3)Gal(b1-4)GlcNAc(b1-2)Man(a1-6)]Man(b1-4)GlcNAc(b1-4)GlcNAc
How it was run: as §1

[5] = target: Gal(b1-4)GlcNAc(b1-3)Gal(b1-4)GlcNAc(b1-3)Gal(b1-4)GlcNAc(b1-2)Man(a1-3)[Gal(b1-4)GlcNAc(b1-3)Gal(b1-4)GlcNAc(b1-3)Gal(b1-4)GlcNAc(b1-2)Man(a1-6)]Man(b1-4)GlcNAc(b1-4)[Fuc(a1-6)]GlcNAc
How it was run: as §1

[6] = target: Gal(b1-4)GlcNAc(b1-3)Gal(b1-4)GlcNAc(b1-3)Gal(b1-4)GlcNAc(b1-2)[Gal(b1-4)GlcNAc(b1-3)Gal(b1-4)GlcNAc(b1-3)Gal(b1-4)GlcNAc(b1-6)]Man(a1-6)[Gal(b1-4)GlcNAc(b1-3)Gal(b1-4)GlcNAc(b1-3)Gal(b1-4)GlcNAc(b1-2)Man(a1-3)]Man(b1-4)GlcNAc(b1-4)[Fuc(a1-6)]GlcNAc
How it was run: as §1

[7] = target: Gal(b1-4)GlcNAc(b1-3)Gal(b1-4)GlcNAc(b1-3)Gal(b1-4)GlcNAc(b1-3)Gal(b1-4)GlcNAc(b1-2)Man(a1-3)[Gal(b1-4)GlcNAc(b1-3)Gal(b1-4)GlcNAc(b1-3)Gal(b1-4)GlcNAc(b1-3)Gal(b1-4)GlcNAc(b1-2)Man(a1-6)]Man(b1-4)GlcNAc(b1-4)GlcNAc
How it was run: as §1

[8] = target: Gal(b1-4)GlcNAc(b1-3)Gal(b1-4)GlcNAc(b1-3)Gal(b1-4)GlcNAc(b1-3)Gal(b1-4)GlcNAc(b1-2)Man(a1-3)[Gal(b1-4)GlcNAc(b1-3)Gal(b1-4)GlcNAc(b1-3)Gal(b1-4)GlcNAc(b1-3)Gal(b1-4)GlcNAc(b1-2)Man(a1-6)]Man(b1-4)GlcNAc(b1-4)[Fuc(a1-6)]GlcNAc
How it was run: as §1

[9] = target: Gal(b1-4)GlcNAc(b1-3)Gal(b1-4)GlcNAc(b1-3)Gal(b1-4)GlcNAc(b1-3)Gal(b1-4)GlcNAc(b1-2)[Gal(b1-4)GlcNAc(b1-3)Gal(b1-4)GlcNAc(b1-3)Gal(b1-4)GlcNAc(b1-3)Gal(b1-4)GlcNAc(b1-6)]Man(a1-6)[Gal(b1-4)GlcNAc(b1-3)Gal(b1-4)GlcNAc(b1-3)Gal(b1-4)GlcNAc(b1-3)Gal(b1-4)GlcNAc(b1-2)Man(a1-3)]Man(b1-4)GlcNAc(b1-4)[Fuc(a1-6)]GlcNAc
How it was run: as §1

[10] = target: Gal(b1-4)GlcNAc(b1-3)Gal(b1-4)GlcNAc(b1-3)Gal(b1-4)GlcNAc(b1-3)Gal(b1-4)GlcNAc(b1-3)Gal(b1-4)GlcNAc(b1-2)Man(a1-3)[Gal(b1-4)GlcNAc(b1-3)Gal(b1-4)GlcNAc(b1-3)Gal(b1-4)GlcNAc(b1-3)Gal(b1-4)GlcNAc(b1-3)Gal(b1-4)GlcNAc(b1-2)Man(a1-6)]Man(b1-4)GlcNAc(b1-4)GlcNAc
How it was run: as §1

[11] = target: Gal(b1-4)GlcNAc(b1-3)Gal(b1-4)GlcNAc(b1-3)Gal(b1-4)GlcNAc(b1-3)Gal(b1-4)GlcNAc(b1-3)Gal(b1-4)GlcNAc(b1-2)Man(a1-3)[Gal(b1-4)GlcNAc(b1-3)Gal(b1-4)GlcNAc(b1-3)Gal(b1-4)GlcNAc(b1-3)Gal(b1-4)GlcNAc(b1-3)Gal(b1-4)GlcNAc(b1-2)Man(a1-6)]Man(b1-4)GlcNAc(b1-4)[Fuc(a1-6)]GlcNAc
How it was run: as §1

[12] = target: Gal(b1-4)GlcNAc(b1-3)Gal(b1-4)GlcNAc(b1-3)Gal(b1-4)GlcNAc(b1-3)Gal(b1-4)GlcNAc(b1-3)Gal(b1-4)GlcNAc(b1-2)[Gal(b1-4)GlcNAc(b1-3)Gal(b1-4)GlcNAc(b1-3)Gal(b1-4)GlcNAc(b1-3)Gal(b1-4)GlcNAc(b1-3)Gal(b1-4)GlcNAc(b1-6)]Man(a1-6)[Gal(b1-4)GlcNAc(b1-3)Gal(b1-4)GlcNAc(b1-3)Gal(b1-4)GlcNAc(b1-3)Gal(b1-4)GlcNAc(b1-3)Gal(b1-4)GlcNAc(b1-2)Man(a1-3)]Man(b1-4)GlcNAc(b1-4)[Fuc(a1-6)]GlcNAc
How it was run: as §1

[13] = target: Gal(b1-4)GlcNAc(b1-3)Gal(b1-4)GlcNAc(b1-3)Gal(b1-4)GlcNAc(b1-3)Gal(b1-4)GlcNAc(b1-3)Gal(b1-4)GlcNAc(b1-3)Gal(b1-4)GlcNAc(b1-2)Man(a1-3)[Gal(b1-4)GlcNAc(b1-3)Gal(b1-4)GlcNAc(b1-3)Gal(b1-4)GlcNAc(b1-3)Gal(b1-4)GlcNAc(b1-3)Gal(b1-4)GlcNAc(b1-3)Gal(b1-4)GlcNAc(b1-2)Man(a1-6)]Man(b1-4)GlcNAc(b1-4)GlcNAc
How it was run: as §1

[14] = target: Gal(b1-4)GlcNAc(b1-3)Gal(b1-4)GlcNAc(b1-3)GalNAc
How it was run: as §1

[15] = target: Gal(b1-4)GlcNAc(b1-3)Gal(b1-4)GlcNAc(b1-3)[Gal(b1-4)GlcNAc(b1-3)Gal(b1-4)GlcNAc(b1-6)]GalNAc
How it was run: as §1

[16] = target: Gal(b1-4)GlcNAc(b1-3)Gal(b1-4)GlcNAc(b1-6)[Gal(b1-3)]GalNAc
How it was run: as §1

[17] = target: Gal(b1-4)GlcNAc(b1-3)Gal(b1-4)[Fuc(a1-3)]GlcNAc(b1-3)Gal(b1-4)[Fuc(a1-3)]GlcNAc
How it was run: as §1

[18] = target: Gal(b1-4)GlcNAc(b1-3)GalNAc
How it was run: as §1

[19] = target: Gal(b1-4)GlcNAc(b1-3)[Fuc(a1-3)GlcNAc(b1-6)]Gal(b1-4)Glc
How it was run: as §1

[20] = target: Gal(b1-4)GlcNAc(b1-3)[Gal(b1-4)GlcNAc(b1-6)]Gal(b1-4)GlcNAc
How it was run: as §1

[21] = target: Gal(b1-4)GlcNAc(b1-3)[GlcNAc(b1-6)]Gal(b1-4)GlcNAc
How it was run: as §1

[22] = target: Gal(b1-4)GlcNAc(b1-6)Gal(b1-4)GlcNAc
How it was run: as §1

[23] = target: Gal(b1-4)GlcNAc(b1-6)GalNAc
How it was run: as §1

[24] = target: Gal(b1-4)GlcNAc(b1-6)[Gal(b1-3)]GalNAc
How it was run: as §1

[25] = target: Gal(b1-4)GlcNAc(b1-6)[Gal(b1-4)GlcNAc(b1-3)]GalNAc
How it was run: as §1

Gal(b1-4)GlcNAc6P = target: Gal(b1-4)GlcNAc6P
How it was run: as §1

Gal(b1-6)Gal = target: Gal(b1-6)Gal
How it was run: as §1

Gal3S(b1-3)GalNAc = target: Gal3S(b1-3)GalNAc
How it was run: as §1

Gal3S(b1-3)GlcNAc = target: Gal3S(b1-3)GlcNAc
How it was run: as §1

[26] = target: Gal3S(b1-3)[Fuc(a1-4)]GlcNAc
How it was run: as §1

B1: PX9896A-bth-573-26-573 (Bacteroides thetaiotaomicron) (protein)
chain: ETNNLKTKEDMYKYFGTSKSMLTHVYSYMPQGYQLFATSGGIFTEDRYSMRDCASDDGEFGAYADNIQNTNNGNWSPIKTYDDSWTLYRGIRAANSFIAEIAQVDFTRYEHDGQYTNWMKQLKYFPYEARVLRAHYFFELARRYGDIAMPLEVLTEEEANTIGKTPFSEVISFIVSECDDAANNLPDSYVNEPGAEIGRVTKGFAMAVKSKALLYAASKLHNPSMDTELWKKSAKAAIDIINTGLYSLDPQESANNLDSKEVVLMRINGDDSDFEMFNLPLRMTAGTRTSSLIPYSNYPSQNLVDAFETVNGYKVTLENTGWVCEDPAFDPQSPYENRDKRFYRAILANGMSFKDYTIETFKGGADDGIVSQGGSPTGYFLRKYIQEATSFEPGKEAVSKHHWVIYRYAETLLTYAESMVNAFNDVNYTDETYKYSALWAINEVRKNADMPLIPSMGKDEFMERLYNEWRVEFAFEDHRFWDVRRWKIADTTQRELYGVKIEKQADGTFNFYKNLYETRNWRDCMYLYPIPQSELYKNTNLNPQNTGW
**Q.** How did the “glycan array binding signal (z-score)” value [1] turn out when B1 was run?
**A.** The value was 5.18.

**Q.** And the “glycan array binding signal (z-score)” value [2]?
**A.** Its value is 0.225.

**Q.** What about the “glycan array binding signal (z-score)” value [3] of the same binder?
**A.** Its value is 0.232.

**Q.** What about the “glycan array binding signal (z-score)” value [4] of the same binder?
**A.** Its value is 0.49.

**Q.** What about the “glycan array binding signal (z-score)” value [5] of the same binder?
**A.** The value was 0.647.

**Q.** What about the “glycan array binding signal (z-score)” value [6] of the same binder?
**A.** The value was -0.033.

**Q.** What about the “glycan array binding signal (z-score)” value [7] of the same binder?
**A.** The value was 0.219.

**Q.** What about the “glycan array binding signal (z-score)” value [8] of the same binder?
**A.** Its value is 0.667.

**Q.** And the “glycan array binding signal (z-score)” value [9]?
**A.** The value was 0.196.

**Q.** What about the “glycan array binding signal (z-score)” value [10] of the same binder?
**A.** The value was 0.845.

**Q.** What about the “glycan array binding signal (z-score)” value [11] of the same binder?
**A.** The value was 0.341.

**Q.** And the “glycan array binding signal (z-score)” value [12]?
**A.** The value was 1.16.

**Q.** What about the “glycan array binding signal (z-score)” value [13] of the same binder?
**A.** The value was -0.316.

**Q.** What about the “glycan array binding signal (z-score)” value [14] of the same binder?
**A.** Its value is -0.719.

**Q.** And the “glycan array binding signal (z-score)” value [15]?
**A.** Its value is 0.442.

**Q.** What about the “glycan array binding signal (z-score)” value [16] of the same binder?
**A.** The value was -0.642.

**Q.** And the “glycan array binding signal (z-score)” value [17]?
**A.** The value was -0.511.

**Q.** What about the “glycan array binding signal (z-score)” value [18] of the same binder?
**A.** Its value is -0.069.

**Q.** And the “glycan array binding signal (z-score)” value [19]?
**A.** The value was -0.223.

**Q.** What about the “glycan array binding signal (z-score)” value [20] of the same binder?
**A.** Its value is 0.24.

**Q.** What about the “glycan array binding signal (z-score)” value [21] of the same binder?
**A.** The value was -0.083.

**Q.** And the “glycan array binding signal (z-score)” value [22]?
**A.** The value was -0.678.

**Q.** And the “glycan array binding signal (z-score)” value [23]?
**A.** The value was -0.209.

**Q.** What about the “glycan array binding signal (z-score)” value [24] of the same binder?
**A.** The value was 0.712.

**Q.** What about the “glycan array binding signal (z-score)” value [25] of the same binder?
**A.** The value was 0.191.

**Q.** What about the “glycan array binding signal (z-score)” value (Gal(b1-4)GlcNAc6P) of the same binder?
**A.** The value was -0.297.

**Q.** What about the “glycan array binding signal (z-score)” value (Gal(b1-6)Gal) of the same binder?
**A.** Its value is -0.438.

**Q.** What about the “glycan array binding signal (z-score)” value (Gal3S(b1-3)GalNAc) of the same binder?
**A.** The value was -0.772.

**Q.** What about the “glycan array binding signal (z-score)” value (Gal3S(b1-3)GlcNAc) of the same binder?
**A.** The value was 0.035.

**Q.** And the “glycan array binding signal (z-score)” value [26]?
**A.** The value was -0.446.
